Measurements from ChEMBL document CHEMBL1201862, “PubChem BioAssay data set” (2004).

System: NCI-H322M
Test: NCI anticancer screen, dose series, 48 h

Structure (SMILES)	GI50
COc1ccc(-c2c(C#N)c(N)nc(S)c2C#N)cc1	inactive: 61 µM
COC1=C(N2CC2)C(=O)c2nc3n(c2C1=O)CCC3	inactive: 1.86 µM
O=C(Nc1ccc([N+](=O)[O-])cc1)Nn1cnnc1	inactive: > 100 µM
O=[N+]([O-])/C=C/c1c(Cl)cccc1Cl	inactive: 16.9 µM
COc1cc(C2c3cc4c(cc3OC(N3CCOCC3)C2C)OCO4)cc(OC)c1OC(C)=O (stereo unspecified)	inactive: 39.7 µM
C=C(C(=O)OC)[C@H]1CC/C(C)=C/CC/C(C)=C/CC[C@@]2(C)O[C@@H]2C1	inactive: 24.5 µM
Cc1ccc(NC(=O)COc2ccc(Cl)cc2)cc1Cl	inactive: > 100 µM
CCOC(=O)NC(C(F)(F)F)(C(F)(F)F)P(=O)(OCC(C)C)OCC(C)C	inactive: 60.1 µM
C/C(=N\NC(=S)N1CCN(c2ccccn2)CC1)c1nccs1	active: 0.925 µM
N#CCCN(CCC#N)c1ccc(/C=C2\N=C(CN3C(=O)c4ccccc4C3=O)OC2=O)cc1	inactive: > 100 µM
COC(=O)/C=C1\C(=O)Nc2ccc(Br)cc21	inactive: 2.04 µM
COC(=O)N/N=C(\Cc1ccccc1)CN(C)C	inactive: > 100 µM
O=C(O)CCC1CCc2cccc(O)c2C1=O (stereo unspecified)	inactive: > 100 µM
COc1cc2c(cc1OC)C(Cl)C(c1cc(OC)c(OC)c(OC)c1)=C2Cl (stereo unspecified)	inactive: 16.3 µM
COc1cc(C[C@@]2(C)[C@@H]3CCC[C@H](CO)[C@@]3(C)CC[C@@H]2C)c(Cl)c(OC)c1	inactive: 17.2 µM
Cc1ccc2c(c1)C/C(=C\c1ccccc1C(=O)O)C2=O	inactive: > 100 µM
COc1ccc2c(c1)-c1[nH]c3ccccc3c1CC2	inactive: 18.5 µM
COc1ccc(S(=O)(=O)Nc2ccc(-c3csc(N4C(=O)/C(=C/c5ccccc5[N+](=O)[O-])N=C4c4ccccc4)n3)cc2)cc1Cl	inactive: > 100 µM
Cc1nc(N)c(N2CCN(CN)CC2)c(O)n1	inactive: > 100 µM
COC(=O)[C@@H]1OC(C)(c2ccccc2)O[C@H]1C(=O)OC	inactive: > 100 µM
COc1cc(C/N=c2/nc(N(C)C)ss2)cc(OC)c1OC	inactive: > 10 µM
O=C1CC(O)c2cscc21 (stereo unspecified)	inactive: > 100 µM

Structure (SMILES)	GI50
CCc1cccc(CC)c1NC1=CC(=O)C(=O)c2ccccc21	inactive: 17 µM
CCN1C2=NC(=O)N(C)C(=O)C2(Cl)C(C(SC)S(=O)(=O)c2ccc(C)cc2)c2ccccc21 (stereo unspecified)	inactive: 86.3 µM
COc1cc(S(=O)(=O)Nc2nc(-c3ccc(N4C(=O)C(CC(=O)O)SC4c4cccs4)cc3)cs2)ccc1Cl (stereo unspecified)	inactive: > 100 µM
CC1=NN(C(=O)CC(=O)N(C(=O)c2ccccc2)c2ccc(Cl)cc2)C(=O)C1/N=N/c1ccc([N+](=O)[O-])cc1 (stereo unspecified)	inactive: > 10 µM
CC1=CC(O)CC(C)(C)C1/C=C/C(C)=C/C=C/C(C)=C/C=C/C=C(C)/C=C/C=C(C)/C=C/C1=C(C)CC(O)CC1(C)C (stereo unspecified)	inactive: > 100 µM
Cc1ccc(N(C=O)c2c([N+](=O)[O-])cc([N+](=O)[O-])c3c2=[N+]([O-])CN=3)cc1	inactive: > 100 µM
Cc1cc(O)nc(NN2C(Cl)C(=O)C2c2ccc(O)cc2)n1 (stereo unspecified)	inactive: 11.1 µM
CC(=O)c1ccc(N2CCN(C3=C(Cl)C(=O)c4c(O)ccc(O)c4C3=O)CC2)cc1	inactive: 13.7 µM
C[C@@]1(OC(=O)c2cc([N+](=O)[O-])cc([N+](=O)[O-])c2)C[C@@H]2CCCC[C@@H]21	inactive: > 100 µM
[O-][S+]1SC(=S)C2C=CC=CC21 (stereo unspecified)	inactive: > 100 µM
COc1cc(-c2cc(=O)c3ccccc3o2)ccc1N	inactive: 90.6 µM
CSC(=NC1=NC(C(F)(F)F)(C(F)(F)F)N=C(c2ccccc2)O1)SC	inactive: 26.9 µM
CCOC(=O)c1ccc(/N=C\c2ccc(N(CCC#N)CCC#N)cc2)cc1	inactive: > 100 µM
COc1ccc(C)cc1Nc1nnc(-c2ccc(N)cc2)s1	inactive: 84.3 µM
CCCCNC1=C(C(=O)OCC)C(=O)CO1	inactive: > 100 µM
O=C(O)C/C=C/CC(=O)O	inactive: > 100 µM
CC(C)=CC(=O)CC(=O)C(=O)Nc1ccc(Cl)c(Cl)c1	inactive: > 100 µM
O=C1/C(=N\O)c2ccccc2S1(=O)=O	inactive: 72.8 µM
CC(C)CC(NC(=O)C(C)(CI)Cc1ccccc1)C(=O)Nc1ccccc1 (stereo unspecified)	inactive: > 100 µM
CN(NC(=O)/C(=C/c1ccc(Cl)cc1)NC(=O)c1ccccc1)c1cn[nH]c(=O)c1Cl	inactive: > 100 µM
O=C1c2ccccc2C(=O)c2[nH]c(Cc3ccccc3F)nc21	inactive: > 100 µM
Cc1cc(N(CCC#N)CCC#N)ccc1/C=C1/CN(N2C(=O)/C(=C/c3ccc(N(CCC#N)CCC#N)cc3C)N=C2c2ccccc2)C(c2ccccc2)=N1	inactive: > 100 µM

Structure (SMILES)	GI50
CC(C)(C)OC(=O)CN1CCN(CC(=O)N2CCN(C(=O)OCc3ccccc3)CC2)CCN(CC(=O)OC(C)(C)C)CCN(CC(=O)N2CCN(C(=O)OCc3ccccc3)CC2)CC1	inactive: 14.9 µM
COc1ccc(-c2nc(N)c(C#N)c3c2CCS(=O)(=O)c2ccc(C)cc2-3)cc1OC	inactive: 39.2 µM
CSc1nc2nccnc2c(=O)[nH]1	inactive: 38.2 µM
O=C1C=CC2(O[C@H](C3CCCCC3)[C@@H](C3CCCCC3)O2)C(SC(=O)c2ccccc2)C1 (stereo partly specified)	inactive: 8.79 µM
COC(=O)C(C(=O)c1ccccc1)C(C(=O)C(=O)Nc1ccc(OC)cc1OC)C(=O)C(=O)c1ccc(C)cc1 (stereo unspecified)	inactive: > 100 µM
O=c1c2ccccc2c(=O)c2c1c1[nH]c3ccccc3c1c1c(=O)c3ccccc3c(=O)c21	inactive: > 100 µM
CCOC(=O)c1ccc(N2C(=O)/C(=C\OC)c3ccccc3C2=O)cc1	inactive: 58.7 µM
O=C(CCN(C(=O)O)S(=O)(=O)c1ccc(NC(=O)c2ccccc2)cc1)NC1CCCCC1	inactive: > 100 µM
C(=N\c1nc2cc3sc(/N=C/c4cccs4)nc3cc2s1)/c1cccs1	inactive: > 100 µM
CC1CN(c2cc3c(cc2F)c(=O)c(C(=O)O)cn3-c2ccc(F)cn2)CC(C)N1 (stereo unspecified)	inactive: > 100 µM
COc1cc2nc(-c3cccs3)[nH]c(=O)c2cc1OC	inactive: > 100 µM
O=C(CCC(=O)C1CCC/C1=N/O)Nc1ccc(Cl)cc1 (stereo unspecified)	inactive: > 100 µM
CCCC/C(C)=N/NC(N)=S	inactive: > 100 µM
O=C(O)CCSC(=O)Nc1ccc([N+](=O)[O-])cc1	inactive: > 100 µM
OCCN(CCO)c1ccc2c(c1)Cc1ccccc1-2	inactive: 36.3 µM
CCc1n[nH]c(=O)n1N=C(c1ccccc1)c1ccccc1	inactive: > 100 µM
COC(=O)CCC(NC(=O)C(C)NC(=O)COC1C(O)C(OC(=O)CCNc2c3ccccc3nc3cccc([N+](=O)[O-])c23)OC(OCc2ccccc2)C1NC(C)=O)C(N)=O (stereo unspecified)	inactive: > 10 µM
Cn1c(=O)c2nc(N3CCCCC3)cnc2n(C)c1=O	inactive: > 100 µM
OCn1nc2c(C3OCCO3)cc3ccccc3n2c1=S	inactive: > 100 µM
Cc1cc(CC(=O)NCCO)n(CCO)c(=O)c1	inactive: > 100 µM
Cn1c(=O)nc2n(-c3ccc(O)cc3)c3ccccc3nc-2c1=O	inactive: > 100 µM
O=S(=O)(N/C(=N\O)Nc1ccc(Cl)cc1)c1cc2ccccc2s1	inactive: 16.8 µM

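Test compounds were applied to cells in 96-well plates for 48 hours at 5 doses. GI50 is the concentration that inhibits growth by half.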 Active and inactive are the calls of the source. No stated cut-off is given here; in the data, active = GI50 up to about 1.1 µM and inactive = higher.
